{"source": "PubChem BioAssay AID485341", "about": "(National Center for Advancing Translational Sciences (NCATS), 2010)", "note": "The campaign covered roughly 330,000 compounds. About 1,700 (0.52%) were called active. Inconclusive means that the source gave no clear call. Such entries were picked first, then a sample of the others. The call rests on the fitted dose curve; in most records, active means well fitted inhibition curve with a large enough effect; inconclusive means small, poorly fitted or top-dose-only effect; inactive means no such curve, though single readings can be large or run the other way. Where the call is inconclusive, the potency comes from a doubtful curve fit. Potency means the concentration at half of the fitted maximal effect; tags describe the fitted curve by direction and shape.", "data": [{"molecular_target": "Beta-lactamase (Escherichia coli (strain K12)) (UniProt P00811)", "sequence (P00811 whole entry, looked up)": "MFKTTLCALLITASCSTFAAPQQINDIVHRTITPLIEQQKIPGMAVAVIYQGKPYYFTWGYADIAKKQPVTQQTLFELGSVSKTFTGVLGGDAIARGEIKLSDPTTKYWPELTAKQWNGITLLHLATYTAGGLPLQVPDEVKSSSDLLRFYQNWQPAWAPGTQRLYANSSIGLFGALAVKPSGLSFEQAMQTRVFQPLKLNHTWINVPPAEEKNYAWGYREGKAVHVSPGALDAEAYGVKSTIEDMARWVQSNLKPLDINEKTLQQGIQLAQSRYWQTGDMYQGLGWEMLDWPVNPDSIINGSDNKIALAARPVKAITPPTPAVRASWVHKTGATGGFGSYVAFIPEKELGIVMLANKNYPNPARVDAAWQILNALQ", "assay": "qHTS Inhibitors of AmpC Beta-Lactamase (assay without detergent); further: nearly all actives have a fitted effect of over 20% in size;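 on activity change, negative = inhibition: plate controls were no compound for no effect and no enzyme for full effect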", "conditions": "AmpC nitrocefin hydrolysis, absorbance 480 nm, 0.0001% Triton; activity change, negative = inhibition: at 57.1 µM (top of the series) unless noted", "summary_of_the_method": "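20 mM phosphate pH 7.0 + 0.01% (detergent screen) or 0.0001% Triton X-100; 5.3 nM AmpC reagent; cpd preinc 15 min RT; nitrocefin (800 uM stock) to start; A480 q20 s × 4 min; Activity was normalised to no-enzyme and no-compound control wells.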", "values": [{"smiles": "Nc1ccc(N2CCN(c3ccc(Cl)c(Cl)c3)CC2)cc1", "activity change, negative = inhibition": "inactive: -31.8%"}, {"smiles": "Cc1ccc(/C=C/C(=O)c2ccccc(=O)c2O)c(C)c1", "Potency": "inconclusive: 31.6 µM [inhibitor, single point]"}, {"smiles": "CCCCN(C(=O)c1cc(S(=O)(=O)N2CCOCC2)ccc1Cl)c1c(N)n(CC(C)C)c(=O)[nH]c1=O", "activity change, negative = inhibition": "inactive: -20.5%"}, {"smiles": "C/C(N)=C(/C#N)C(=O)CSc1nc2cc(Cl)ccc2s1", "Potency": "inconclusive: 7.08 µM [inhibitor, single point]"}, {"smiles": "O=C(Cc1ccccc1)NN1C(=O)C2C3C=CC(C3)C2C1=O", "note": "(configuration not stated)", "Potency": "inconclusive: 6.31 µM [inhibitor, single point]"}, {"smiles": "CCCCn1c(N)c(N(CCOC)C(=O)c2ccc(S(=O)(=O)N(CC)c3ccccc3)cc2)c(=O)[nH]c1=O", "Potency": "inconclusive: 28.2 µM [inhibitor, single point]"}, {"smiles": "O=C(c1cccc(C(=O)N2CCN(c3ncccn3)CC2)c1)N1CCN(c2ncccn2)CC1", "activity change, negative = inhibition": "inactive: 83.3%"}, {"smiles": "CC(C)c1nc(SCC(=O)c2ccccc2)c2c(=O)n(C)c(=O)n(C)c2n1", "Potency": "inconclusive: 0.316 µM [inhibitor, full curve, poor fit]"}, {"smiles": "O=C(Nc1ncc2c(n1)-c1ccccc1OC2)c1ccccc1Cl", "Potency": "inconclusive: 31.6 µM [inhibitor, single point]"}, {"smiles": "CC(NC(=O)COC(=O)c1cn(-c2ccccc2)nc1-c1cccs1)c1ccccc1", "note": "(configuration not stated)", "Potency": "inconclusive: 5.01 µM [inhibitor, full curve, poor fit]"}, {"smiles": "COc1ccc(CNC(=O)CSc2nc3ccc(C)cc3[nH]2)cc1", "activity change, negative = inhibition": "inactive: -26.7%"}, {"smiles": "COc1ccc(-c2nnc(SCC3CCCO3)n2C)cc1", "note": "(configuration not stated)", "activity change, negative = inhibition": "inactive: 9.22%"}, {"smiles": "O=[N+]([O-])c1ccc(Nc2nc(N/N=C/c3cccc(F)c3)nc(N3CCCC3)n2)cc1", "activity change, negative = inhibition": "inactive: -16.3%"}, {"smiles": "O=C(COc1ccc([N+](=O)[O-])cc1)Nc1nc(-c2ccccn2)cs1", "activity change, negative = inhibition": "inactive: -11.9%"}, {"smiles": "OCCOCCOc1cccc2[nH]ccc12", "activity change, negative = inhibition": "inactive: -6.97%"}, {"smiles": "O=C(Nc1ccc2c(c1)OCO2)[C@@H]1[C@@H]2C(=O)N(C3CCCCC3)C(=O)[C@@H]2C2c3ccccc3C=CN21", "note": "(some centres not stated)", "Potency": "inconclusive: 6.31 µM [inhibitor, single point]"}, {"smiles": "CCCCn1nc2cc(C(=O)NCc3cc(C(F)(F)F)cc(C(F)(F)F)c3)ccc2c1OCC", "Potency": "inconclusive: 0.631 µM [inhibitor, partial curve, poor fit]"}, {"smiles": "COc1cccc(C2CC(c3ccc(F)cc3)Nc3nc(N)nn32)c1", "note": "(configuration not stated)", "Potency": "active: 39.8 µM"}, {"smiles": "Cc1cc(Cl)ccc1OCCCC(=O)N1CCN(C(=O)c2ccco2)CC1", "activity change, negative = inhibition": "inactive: 80.8%"}, {"smiles": "CCOc1cc(C(=O)N=c2sccn2C)ccc1OC(F)F", "activity change, negative = inhibition": "inactive: 19%"}, {"smiles": "O=C(CCS(=O)(=O)Cc1ccccc1F)NCCc1ccc(Cl)cc1", "activity change, negative = inhibition": "inactive: -6.16%"}, {"smiles": "Cc1cc(Nc2ccccc2)n(-c2nc3ccccc3[nH]2)n1", "Potency": "inconclusive: 3.98 µM [inhibitor, partial curve]"}, {"smiles": "COC(=O)C1=C(C)OC(N)=C(C#N)C1c1ccc(OC)c(CSc2ccccn2)c1", "note": "(configuration not stated)", "Potency": "active: 0.224 µM"}, {"smiles": "CCC1CCc2sc(C(=O)OCC(=O)N(CCOC)c3c(N)n(Cc4ccccc4)c(=O)[nH]c3=O)cc2C1", "note": "(configuration not stated)", "Potency": "inconclusive: 39.8 µM [inhibitor, single point]"}, {"smiles": "CCC(C)[C@H](NC(=O)NCC1CCCO1)C(=O)OC", "note": "(some centres not stated)", "Potency": "inconclusive: 6.31 µM [inhibitor, single point]"}, {"smiles": "O=C(CSc1nnnn1-c1ccc(Cl)cc1)NC(=O)Nc1ccc2c(c1)OCCO2", "Potency": "inconclusive: 22.4 µM [inhibitor, partial curve]"}, {"smiles": "COc1cccc(NC(=O)CSc2nnc(-c3ccc(C)cc3)o2)c1", "activity change, negative = inhibition": "inactive: -37.5%"}, {"smiles": "CN(CC(=O)Nc1ccc(Cl)c(C(F)(F)F)c1)C(=O)c1ccc(N2CCOCC2)c([N+](=O)[O-])c1", "Potency": "inconclusive: 39.8 µM [inhibitor, single point]"}, {"smiles": "COc1ccc(-c2cn(Cc3ccc4c(c3)C(=O)c3ccccc3C4=O)nn2)cc1", "activity change, negative = inhibition": "inactive: -28%"}, {"smiles": "O=c1c2ccccc2nc(-c2ccccc2)n1Cc1ccccc1", "activity change, negative = inhibition": "inactive: -7.78%"}, {"smiles": "COc1ccc(Cl)cc1NC(=O)c1nnn(CC(=O)Nc2ccc(C)c(C)c2)c1N", "Potency": "inconclusive: 8.91 µM [inhibitor, full curve, poor fit]"}, {"smiles": "COc1ccc(OC)c(NC(=O)CSc2nnnn2-c2ccc3c(c2)OCO3)c1", "Potency": "inconclusive: 5.62 µM [inhibitor, single point]"}, {"smiles": "COc1ccc(-n2cc(-c3ccccc3)[nH]c2=S)c(OC)c1", "activity change, negative = inhibition": "inactive: -46.4%"}, {"smiles": "Cc1cc(/C=C(\\C#N)C(=O)NCCc2c[nH]c3ccccc23)c(C)n1C", "Potency": "active: 25.1 µM"}, {"smiles": "CC(C)C[C@@H](CO)N(Cc1ccccc1)S(=O)(=O)N(Cc1ccccc1)[C@H](CO)CC(C)C", "activity change, negative = inhibition": "inactive: 0.76%"}, {"smiles": "O=C(/C=C/c1c(Cl)nc2ccccn12)Nc1ccc(F)cc1", "Potency": "inconclusive: 31.6 µM [inhibitor, single point]"}, {"smiles": "Cc1cccc(C)c1NC(=O)c1c(C)nn(-c2ccccc2)c1Cl", "Potency": "inconclusive: 0.398 µM [inhibitor, partial curve, poor fit]"}, {"smiles": "CCCCOc1ccc(-c2c(C#N)c(N)nc(SCC(N)=O)c2C#N)cc1", "activity change, negative = inhibition": "inactive: 3.13%"}, {"smiles": "Cc1ccc(-c2nc3ccccc3c(=O)n2CCCN2CCOCC2)cc1", "Potency": "inconclusive: 5.62 µM [inhibitor, single point]"}, {"smiles": "CN(C)c1cccc(C(=O)OCc2cc(=O)oc3cc(O)ccc23)c1", "Potency": "active: 17.8 µM"}, {"smiles": "CC1Sc2ccc(C(=O)Nc3ccccc3OC(F)F)cc2NC1=O", "note": "(configuration not stated)", "Potency": "inconclusive: 35.5 µM [inhibitor, single point]"}, {"smiles": "CC(Oc1ccc(Br)cc1)C(=O)Nc1cc(S(=O)(=O)N2CCOCC2)ccc1N1CCCC1", "note": "(configuration not stated)", "Potency": "inconclusive: 35.5 µM [inhibitor, single point]"}, {"smiles": "CCCn1c(C(Cc2ccccc2)NC(=O)COC)nc2ccccc21", "note": "(configuration not stated)", "Potency": "inconclusive: 10 µM [inhibitor, partial curve, poor fit]"}, {"smiles": "Cc1nn(-c2ccc(F)cc2)c(Cl)c1/C=N/NC(=O)c1ccc(O)cc1", "activity change, negative = inhibition": "inactive: -58%"}, {"smiles": "CCOC(=O)c1c(-c2ccccc2)nc2c(C)cccn12", "activity change, negative = inhibition": "inactive: 19.7%"}, {"smiles": "N#Cc1ccc2c(c1)NC(=O)C1CCCN21", "note": "(configuration not stated)", "activity change, negative = inhibition": "inactive: -41.6%"}, {"smiles": "O=C(NCCc1ccc(F)cc1)C(=O)Nc1cc2c3c(c1)CC(=O)N3CCC2", "activity change, negative = inhibition": "inactive: 5.74%"}]}]}
